Assay results reported in PMC4059916.
These are yes or no findings as the source states them, for the method shown. Some entries that bind do so weakly or less than the wild type.

Protein sequences, listed by entry. Tags and fused reporters are not part of them. Residues count along the entry.
UniProt Q4G0F5: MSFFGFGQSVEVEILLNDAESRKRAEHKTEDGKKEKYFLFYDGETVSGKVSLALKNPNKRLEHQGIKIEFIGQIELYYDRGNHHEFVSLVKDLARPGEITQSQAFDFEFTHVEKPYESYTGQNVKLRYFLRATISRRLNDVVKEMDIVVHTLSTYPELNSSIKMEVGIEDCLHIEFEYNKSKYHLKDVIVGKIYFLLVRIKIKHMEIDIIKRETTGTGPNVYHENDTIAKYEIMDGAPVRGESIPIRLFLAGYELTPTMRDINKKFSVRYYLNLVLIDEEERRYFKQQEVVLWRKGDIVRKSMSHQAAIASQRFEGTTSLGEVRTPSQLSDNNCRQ
UniProt P51809, residues 2-188: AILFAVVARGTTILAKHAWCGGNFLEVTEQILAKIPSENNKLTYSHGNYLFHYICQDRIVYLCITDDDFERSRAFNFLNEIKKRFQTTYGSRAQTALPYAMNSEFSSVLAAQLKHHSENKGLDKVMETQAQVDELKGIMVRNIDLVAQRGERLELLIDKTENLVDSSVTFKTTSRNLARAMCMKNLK

Columns and labels:
[1] = molecular target: BD-VPS26B (yeast two-hybrid) (UniProt Q4G0F5); test: two-hybrid; pGBT9 (BD) and pGAD-C (AD) vectors, HF7c reporter strain; growth on plates lacking histidine indicates interaction
[2] = molecular target: VARP1-1050His10, wild type (human) (UniProt Q96NW4); test: pull-down; GST-VPS29 or GST as bait with combinations of VARP-His10, Rab32 and VAMP7 cytoplasmic domain; samples western blotted for Rab32 and VAMP7; both purified

| Substance | binding [1] | binding [2] |
| --- | --- | --- |
| AD-VARP, full length (yeast two-hybrid) (from UniProt Q96NW4 1-1050) | no binding |  |
| VAMP7 cytoplasmic domain (CD) (from UniProt P51809 2-188) (domain or fragment) |  | binds |
